In PMC8263776 one finds binding data, which are given here for three molecules.

Assay [1] has as its target T1, KCNE4-CFP (mouse) (UniProt Q9WTW3).
T1 sequence: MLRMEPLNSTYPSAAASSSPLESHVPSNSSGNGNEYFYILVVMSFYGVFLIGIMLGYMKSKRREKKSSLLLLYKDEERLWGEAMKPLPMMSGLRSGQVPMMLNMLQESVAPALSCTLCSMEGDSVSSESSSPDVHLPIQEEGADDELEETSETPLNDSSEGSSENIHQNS
Briefly: co-IP; KCNE4-CFP and KCNE4-HA in HEK-293 lysates in the presence or absence of co-expressed Kv1.3; IP with anti-tag antibody, blots against Kv1.3, KCNE4, GFP or HA.

The target of the next assay is T2, KCNE2WT-CFP (human) (UniProt Q9Y6J6).
T2 sequence: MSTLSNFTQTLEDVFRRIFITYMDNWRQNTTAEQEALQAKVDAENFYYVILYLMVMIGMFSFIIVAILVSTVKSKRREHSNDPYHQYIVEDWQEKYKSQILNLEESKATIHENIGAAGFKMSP
Nature of the assay: co-IP; HEK-293 lysates (1% Triton X-100, 150 mM NaCl, 50 mM HEPES pH 7.4); anti-GFP antibody cross-linked to protein A-Sepharose, 2 h at RT; immunoblot against GFP and HA.

For assay [2], the target named is T3, KCNE4-YFP (mouse) (UniProt Q9WTW3).
T3 sequence: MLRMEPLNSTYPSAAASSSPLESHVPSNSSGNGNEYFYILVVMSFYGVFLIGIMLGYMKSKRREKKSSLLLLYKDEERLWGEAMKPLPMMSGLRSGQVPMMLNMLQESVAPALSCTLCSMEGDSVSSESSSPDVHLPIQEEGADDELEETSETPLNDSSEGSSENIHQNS
The assay is described as above.

The target in assay [3] is T4, KCNE4(L69-72A)-CFP (mouse) (UniProt Q9WTW3).
T4 sequence: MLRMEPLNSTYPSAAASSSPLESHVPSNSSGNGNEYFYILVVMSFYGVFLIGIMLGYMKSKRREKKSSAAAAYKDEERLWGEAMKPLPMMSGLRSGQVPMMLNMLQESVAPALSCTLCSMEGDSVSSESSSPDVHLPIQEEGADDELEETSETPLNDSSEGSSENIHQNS
The assay is described as above.

For assay [4], the target named is T1, KCNE4-CFP (mouse). The description is as above.
Assay [5] addresses T1, KCNE4-CFP (mouse). Briefly: native gel or EMSA; non-denaturing SDS-PAGE of total HEK-293 lysates (sample buffer 50 mM Tris-HCl pH 6.8, 10% glycerol; 5% gel with 0.1% SDS), immunoblot anti-GFP.
Assay [6] addresses T1, KCNE4-CFP (mouse). Nature of the assay: cross-linking; HEK-293 lysates (50 mM boric acid, 100 mM K acetate, 2 mM MgCl2, 1 mM EGTA, 1% Triton X-100, pH 8.5) with or without 5 mM DMP for 1 h; 7% SDS-PAGE, immunoblot against CFP.
In assay [7] the target is T3, KCNE4-YFP (mouse). Briefly: FRET or BRET; acceptor photobleaching of KCNE4-CFP/KCNE4-YFP in fixed HEK-293 cells in the absence or presence of co-expressed Kv1.3 or CaM.
The target in another assay is T5, KCNE4-HA (mouse) (UniProt Q9WTW3).
T5 sequence: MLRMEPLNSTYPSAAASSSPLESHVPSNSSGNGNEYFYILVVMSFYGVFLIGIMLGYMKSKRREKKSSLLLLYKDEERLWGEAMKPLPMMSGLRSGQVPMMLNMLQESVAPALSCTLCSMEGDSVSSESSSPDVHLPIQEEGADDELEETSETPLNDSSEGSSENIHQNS
Nature of the assay: co-IP; KCNE4-CFP and KCNE4-HA in HEK-293 lysates in the presence or absence of CaM, with 2 mM Ca2+ or with 2 mM EDTA/2 mM EGTA; anti-HA antibody cross-linked to protein A-Sepharose, 2 h at RT.

Assay [8] deals with T3, KCNE4-YFP (mouse). Nature of the assay: FRET or BRET; acceptor photobleaching in fixed HEK-293 cells, CFP donor and YFP acceptor.
For assay [9], the target named is T4, KCNE4(L69-72A)-CFP (mouse). Briefly: native gel or EMSA; non-denaturing SDS-PAGE of total HEK-293 lysates (sample buffer 50 mM Tris-HCl pH 6.8, 10% glycerol; 5% gel with 0.1% SDS), immunoblot anti-GFP.

Results are given in words; binding and its absence hold for the method and conditions named. For some assays here: Binding seen in cells or lysates may run through a third protein. Some results given as binding are weak or reduced against the parent protein; the word gives no strength. Sequences can lack the tags named with a protein.

B1: KCNE4-HA (protein, UniProt Q9WTW3 1-170)
chain: MLRMEPLNSTYPSAAASSSPLESHVPSNSSGNGNEYFYILVVMSFYGVFLIGIMLGYMKSKRREKKSSLLLLYKDEERLWGEAMKPLPMMSGLRSGQVPMMLNMLQESVAPALSCTLCSMEGDSVSSESSSPDVHLPIQEEGADDELEETSETPLNDSSEGSSENIHQNS
On to B1, for which the binding entry with KCNE4-CFP (mouse) [1] was “binds”; with KCNE2WT-CFP (human) it was “no binding”; with KCNE4-YFP (mouse) [2], “binds”; in assay [3], “no binding”; with KCNE4-CFP (mouse) [4] it was “binds”.

B2: KCNE4-CFP (protein, UniProt Q9WTW3 1-170)
chain: MLRMEPLNSTYPSAAASSSPLESHVPSNSSGNGNEYFYILVVMSFYGVFLIGIMLGYMKSKRREKKSSLLLLYKDEERLWGEAMKPLPMMSGLRSGQVPMMLNMLQESVAPALSCTLCSMEGDSVSSESSSPDVHLPIQEEGADDELEETSETPLNDSSEGSSENIHQNS
In the case of B2, the binding result in the assay with KCNE4-CFP (mouse) [5], with KCNE4-CFP (mouse) [6], in the assay with KCNE4-YFP (mouse) [7], with KCNE4-HA (mouse) and in the assay with KCNE4-YFP (mouse) [8] was “binds” in each case.

B3: KCNE4(L69-72A)-CFP (protein, UniProt Q9WTW3 1-170)
chain: MLRMEPLNSTYPSAAASSSPLESHVPSNSSGNGNEYFYILVVMSFYGVFLIGIMLGYMKSKRREKKSSAAAAYKDEERLWGEAMKPLPMMSGLRSGQVPMMLNMLQESVAPALSCTLCSMEGDSVSSESSSPDVHLPIQEEGADDELEETSETPLNDSSEGSSENIHQNS
Regarding B3, in [9], the binding entry was “no binding”.
